Reference: the supplement of paper PMC9446081
Out of some 39,000 compounds screened, about 220 (0.56%) showed activity. The list shows a part of the results.

test system: Escherichia coli K-12 BW25113; assay: relative growth (OD600 normalised to plate interquartile mean) (fraction); higher = less growth inhibition, active = 0.2 or less; details: 50 µM; LB; incubation time: overnight (16-24 h)
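Further: static incubation at 37 °C against the wild-type strain, values averaged over two biological replicates.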

Compound | relative growth
CC(C)NC(=O)Nc1cccc2c1O[C@@H](CN(C)S(=O)(=O)c1cccs1)[C@H](C)CN([C@H](C)CO)C2=O | inactive: 0.996
C[C@@H]1CCCCO[C@@H](CN(C)C(=O)Nc2cccc3ccccc23)[C@@H](C)CN([C@H](C)CO)C(=O)c2cc(NS(=O)(=O)c3ccc(Cl)cc3)ccc2O1 | inactive: 1.01
CC(C)NC(=O)N(C)C[C@H]1Oc2c(NS(=O)(=O)c3cccs3)cccc2C(=O)N([C@H](C)CO)C[C@H]1C | inactive: 0.992
C[C@@H]1CCCCO[C@@H](CN(C)Cc2ccc(C(=O)Nc3ccccc3N)cc2)[C@@H](C)CN([C@H](C)CO)C(=O)c2cc(NC(=O)Nc3ccc(F)cc3)ccc2O1 | inactive: 1
COc1ccc(NC(=O)Nc2cccc3c2O[C@@H](CN(C)S(C)(=O)=O)[C@H](C)CN([C@H](C)CO)C3=O)cc1 | inactive: 0.974
C[C@H](CO)N1C[C@H](C)[C@@H](CN(C)C(=O)Nc2cccc3ccccc23)OCCCC[C@H](C)Oc2ccc(NS(C)(=O)=O)cc2C1=O | inactive: 1.01
NC(=O)CCCCC(N)=O | inactive: 0.996
CC(C)(O/N=C(\C(=O)N[C@@H]1C(=O)N2C(C(=O)O)=C(C[N+]3(CCNC(=O)c4ccc(O)c(O)c4Cl)CCCC3)CS[C@H]12)c1csc(N)n1)C(=O)O | active: 0.0469
Cc1ccc(S(=O)(=O)N2C[C@H](O)COC[C@@H]3O[C@H](CC(=O)NCc4ccc5c(c4)OCO5)CC[C@H]32)cc1 | inactive: 1.02
C[C@H](CO)N1C[C@H](C)[C@@H](CN(C)C(=O)Nc2ccc(C(F)(F)F)cc2)OCCCC[C@H](C)Oc2ccc(NC(=O)C3CCCCC3)cc2C1=O | inactive: 1.02
C[C@@H]1CN([C@@H](C)CO)C(=O)c2cc(NC(=O)Nc3ccc(C(F)(F)F)cc3)ccc2O[C@H]1CN(C)C(=O)Nc1ccc(C(F)(F)F)cc1 | inactive: 1
CO[C@@H]1CN(C)C(=O)c2ccc(NC(=O)C3CC3)cc2OC[C@H](C)N(C(=O)CN2CCOCC2)C[C@@H]1C | inactive: 0.984
Cc1cccc(NC(=O)Nc2ccc3c(c2)C(=O)N(C)[C@H]2CC[C@@H](CC(=O)NCc4ccccc4Cl)O[C@H]2CO3)c1 | inactive: 1.03
COC(=O)CSc1nc(=O)c(C)n[nH]1 | inactive: 1.03
CN(C)CCNC(=O)[C@H]1Cn2ccnc2C2(CCN(Cc3nccs3)CC2)O1 | inactive: 1.01
COc1ccc(S(=O)(=O)N2C[C@@H](O)COC[C@@H]3O[C@H](CC(=O)NCCN4CCCCC4)CC[C@H]32)cc1 | inactive: 0.913
C[C@@H]1CCCCO[C@@H](CN(C)C(=O)Nc2cccc3ccccc23)[C@@H](C)CN([C@@H](C)CO)C(=O)c2cc(NC(=O)C3CCCCC3)ccc2O1 | inactive: 1.01
C[C@@H]1CN([C@@H](C)CO)S(=O)(=O)c2ccc(-c3ccc(C(=O)N(C)C)cc3)cc2O[C@@H]1CN(C)C(=O)C1CCC1 | inactive: 0.996
O=C(O)[C@H]1C[C@H](O)CN1Cc1ccccc1 | inactive: 1.01

Compound | relative growth
C[C@@H]1CN([C@@H](C)CO)C(=O)Cc2cc(NC(=O)Nc3cccc4ccccc34)ccc2O[C@H]1CN(C)Cc1ccc(-c2ccccc2)cc1 | inactive: 1.03
C[C@H]1CN([C@@H](C)CO)C(=O)Cc2cc(NC(=O)Nc3cccc4ccccc34)ccc2O[C@@H]1CN(C)C(=O)Nc1ccccc1 | inactive: 1.02
C[C@H]1CN([C@@H](C)CO)C(=O)CCCn2nncc2CO[C@@H]1CN(C)Cc1cccc2c1OCCCO2 | inactive: 0.992
COc1ccc(S(=O)(=O)N(C)C[C@@H]2OCCCC[C@H](C)Oc3ccc(NC(=O)Nc4cccc5ccccc45)cc3C(=O)N([C@@H](C)CO)C[C@H]2C)cc1 | inactive: 1.04
COc1ccc(S(=O)(=O)N(C)C[C@@H]2Oc3cc(C#CC4CC4)ccc3S(=O)(=O)N([C@@H](C)CO)C[C@@H]2C)cc1 | inactive: 1.04
C[C@H](CO)N1C[C@H](C)[C@@H](CN(C)C(=O)NC2CCCCC2)Oc2c(NS(C)(=O)=O)cccc2C1=O | inactive: 0.988
CCS(=O)(=O)NCC[C@@H]1CC[C@@H](NC(=O)C2CCOCC2)[C@@H](CO)O1 | inactive: 0.991
COc1ccc(S(=O)(=O)N(C)C[C@@H]2OCCCC[C@H](C)Oc3ccc(NC(=O)Nc4ccc5c(c4)OCO5)cc3C(=O)N([C@H](C)CO)C[C@@H]2C)cc1 | inactive: 1.03
C[C@H]1CN([C@@H](C)CO)C(=O)c2cc(C#CC3(O)CCCC3)cnc2O[C@@H]1CN(C)C(=O)C1CCCCC1 | inactive: 1.01
C[C@@H]1CN([C@@H](C)CO)C(=O)c2cccc(NC(=O)c3ccc(-c4nccs4)cc3)c2O[C@@H]1CN(C)Cc1ccc(Cl)c(Cl)c1 | inactive: 1.04
C[C@@H]1CCCCO[C@@H](CN(C)S(=O)(=O)c2ccc(F)cc2)[C@@H](C)CN([C@@H](C)CO)C(=O)c2cc(NS(=O)(=O)c3cn(C)cn3)ccc2O1 | inactive: 0.997
COCCOC(=O)N1C(=O)[C@@]2(c3ccccc31)[C@H](c1ccc(OCCO)cc1)N1[C@H](c3ccccc3)[C@H](c3ccccc3)OC(=O)[C@H]1[C@@H]2C(=O)N1CCc2cc(OC)c(OC)cc2C1 | inactive: 1.04
Cc1noc(C)c1NC(=O)N(C)C[C@H]1Oc2c(NC(=O)c3ccc(-c4nccs4)cc3)cccc2C(=O)N([C@@H](C)CO)C[C@H]1C | inactive: 0.991
C[C@@H]1CCCCO[C@@H](CN(C)C(=O)Nc2ccc(F)cc2)[C@H](C)CN([C@@H](C)CO)C(=O)c2cc(NC(=O)Nc3ccccc3)ccc2O1 | inactive: 1.03
COCCNC(=O)C[C@@H]1C[C@H]2c3cc(NS(C)(=O)=O)ccc3O[C@H]2[C@@H](CO)O1 | inactive: 0.981
COCC(=O)Nc1ccc2c(c1)C(=O)N(C)C[C@@H](OC)[C@H](C)CN(Cc1ccccc1OC)[C@H](C)CO2 | inactive: 0.988
CCCCCCCCCCCCCCCC(=O)OC1C(SC)OC(C(NC(=O)C2CC(CCC)CN2C)C(C)Cl)C(O)C1O.Cl (configuration not stated) | inactive: 0.863
Cc1noc(C)c1NC(=O)Nc1ccc2c(c1)C(=O)N([C@H](C)CO)C[C@H](C)[C@H](CN(C)S(=O)(=O)c1ccc(Cl)cc1)OCCCC[C@H](C)O2 | inactive: 0.98
COc1cccc(CNC(=O)C[C@@H]2C=C[C@H](NC(=O)C3CCOCC3)[C@H](CO)O2)c1 | inactive: 0.98

Compound | relative growth
C[C@@H]1CCCCO[C@H](CN(C)S(=O)(=O)c2ccc(F)cc2)[C@@H](C)CN([C@H](C)CO)C(=O)c2cc(NS(=O)(=O)c3cn(C)cn3)ccc2O1 | inactive: 0.992
Cc1ccc(S(=O)(=O)N2C[C@H](O)COC[C@@H]3O[C@H](CC(=O)NCCN4CCCCC4)CC[C@H]32)cc1 | inactive: 0.981
C[C@@H]1CN([C@@H](C)CO)C(=O)c2cc(NC(=O)c3ccncc3)ccc2O[C@H]1CN(C)C(=O)Nc1ccc2c(c1)OCO2 | inactive: 1.03
O=C(Cc1ccncc1)NCC[C@H]1CC[C@@H](NC(=O)C2CCOCC2)[C@H](CO)O1 | inactive: 1.01
C[C@@H]1CN([C@H](C)CO)C(=O)Cc2cc(NS(C)(=O)=O)ccc2O[C@H]1CN(C)S(=O)(=O)c1ccc(Cl)cc1 | inactive: 1.01
C[C@H](CO)N1C[C@H](C)[C@H](CN(C)Cc2ccc(Oc3ccccc3)cc2)Oc2cc(-c3ccncc3)ccc2S1(=O)=O | inactive: 1.04
Cn1cnc2c(C(F)(F)F)nc(N)nc21 | inactive: 1.01
C[C@@H]1CN([C@@H](C)CO)C(=O)c2cc(-c3ccc(C(=O)N(C)C)cc3)cnc2O[C@@H]1CN(C)C(=O)c1ccncc1 | inactive: 0.99
CN(C)CCCNC(=O)C[C@H]1C=C[C@@H](NC(=O)Cc2cccnc2)[C@@H](CO)O1 | inactive: 0.987
COc1ccc(NC(=O)N(C)C[C@@H]2OCCCC[C@@H](C)Oc3ccc(NS(=O)(=O)c4ccccc4)cc3C(=O)N([C@@H](C)CO)C[C@@H]2C)cc1 | inactive: 1
C[C@H](CO)N1C[C@H](C)[C@H](CN(C)Cc2ccc3c(c2)OCO3)OCCCC[C@H](C)Oc2ccc(NC(=O)CCC(F)(F)F)cc2C1=O | inactive: 0.991
C[C@H](CO)N1C[C@H](C)[C@H](CN(C)S(C)(=O)=O)Oc2c(NC(=O)c3nc4ccccc4s3)cccc2C1=O | inactive: 1.01
O=C(C[C@@H]1C=C[C@H](NC(=O)CN2CCOCC2)[C@H](CO)O1)NC1CCC1 | inactive: 0.974
CN1CCN(C(=O)C[C@H]2CC[C@H]3[C@@H](COC[C@H](O)CN3Cc3ccc(Oc4ccccc4)cc3)O2)CC1 | inactive: 1.01
C=CCOC(=O)[C@@H]1[C@H]2C(=O)O[C@H](c3ccccc3)[C@H](c3ccccc3)N2[C@H](c2ccc(OCCOC(=O)[C@H]3C[C@H]4C(=O)N5CCC[C@H]5C(=O)N4[C@H]3c3cccc(OCCO)c3)cc2)[C@@]12C(=O)Nc1ccc(I)cc12 | inactive: 1.09
O=C(C[C@H]1CC=CCC[C@@H](Cc2ccc(F)cc2)C(=O)OC[C@H](Cc2ccccc2)NC1=O)NCCO | inactive: 1
CC(C)NC(=O)Nc1ccc2c(c1)C(=O)N([C@@H](C)CO)C[C@H](C)[C@H](CN(C)S(=O)(=O)c1cn(C)cn1)OCCCC[C@@H](C)O2 | inactive: 1.01
C[C@H](CO)N1C[C@H](C)[C@H](CN(C)Cc2ccc(C(F)(F)F)cc2)Oc2c(NS(C)(=O)=O)cccc2C1=O | inactive: 1
COCCNC(=O)C[C@@H]1CC[C@@H]2[C@H](COC[C@@H](O)CN2S(=O)(=O)c2ccccc2C)O1 | inactive: 0.965
